The other results are listed elsewhere or left out.

In this test the test system is PfSIP2 AP2 domain 1 (GST-tagged). Nature of the test: gcPBM binding intensity (ln(normalized median fluorescence intensity)); higher = stronger DNA binding. The essentials: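 Each value is the highest Masliner-normalised natural-log median intensity across replicate spots of either orientation of a probe. The probes were primer-extended double-stranded 36-bp intergenic genomic sequences on an Agilent 4 × 180k array, alongside negative controls, exposed for 1 h to GST-tagged P. falciparum DNA-binding domains expressed in E. coli. Bound protein was picked up with Alexa488 anti-GST antibody and scanned at 488 nm.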
With “TATGTGAATATAATCACACACAATACGGAAAGAGAC [CACACA_site7311]”, the “gcPBM binding intensity (ln)” value stood at 8.34.
Under “AATGTGATAATATACACACACGCATATATATATATA [CACACA_site323]” stands 9.89; under “CTGTGTAATTTAAATTGTACGTTTGAAAAAAATAAA [XGTACX_site5667]”, 7.22.
As for “AAAACACTTATGGATTGTACAATAAAAATTATATTA [XGTACX_site7042]”, the “gcPBM binding intensity (ln)” value was 6.93.
As to “TTTTAAAGAAAAAAATGTACAAAATTTTTATTTTAA [XGTACX_site1496]”, the “gcPBM binding intensity (ln)” value turned out to be 6.62.
As for “AGTAGTCTGGAGAAGAGTACACAGTATCTGGTAGCT [XGTACX_site2042]”, the “gcPBM binding intensity (ln)” value was 6.71.
For “ACATTAACATTGTTGGTGCAAAATTAATATGTTTTT [GTGCAC_site9673]”, the “gcPBM binding intensity (ln)” value was determined as 9.77.
To “CAAACATATTAATGTACACACACCCACCCACAAACA [CACACA_site2752]” belongs 7.69; to “TTTTTTTCAATATTTGCACACGATTAAAATATTTAA [CACACA_site5266]”, 7.28; to “TATTATATATATATATGTACATATTGTATGTTATAT [XGTACX_site5303]”, 7.09.
As to “TATGTGAATATTGAGGTGCGGTTGTTAAAATTTATA [GTGCAC_site9915]”, the “gcPBM binding intensity (ln)” value was 10.1.
As to “TTAAATATTTTTTATACACACATTTCTTATTTAACT [CACACA_site229]”, the “gcPBM binding intensity (ln)” value stood at 6.85.
As to “TAATTATTATTAATAGTACACACTATGGCATTTCAA [CACACA_site2488]”, the “gcPBM binding intensity (ln)” value amounted to 6.94.
For the sequence “CCTAAAGTGTAAAATTCACACACATATATATATATA [CACACA_site8385]”, the “gcPBM binding intensity (ln)” value was determined as 8.94.
“TTTATTTATAGGTATACACACTTTAATTAAAAGTTG [CACACA_site7232]”: the “gcPBM binding intensity (ln)” value was found to be 6.82.
Regarding “TTTATTTTTGAAGTTGCACACACAAAAATAAAAAGT [CACACA_site8030]”, the “gcPBM binding intensity (ln)” value was found to be 8.18.
In the case of “AATTCAATTGAGCAAAATTCAAATAAATTAAAAAGA [XGTACX_negctrl_site71]”, the “gcPBM binding intensity (ln)” value worked out at 6.76.
Under “CAAAAATAATTTAGGTGTACAAATTTGACAAAAAAA [XGTACX_site188]” stands 7.02.
Consider ATGAAACACTCCATAGTGCAAAATATATATTATATT, for which the “gcPBM binding intensity (ln)” value came to 8.32.
Under “CTATTTTTCCTGAAATGTACAAGAATTTTATTTGAT [XGTACX_site8867]” stands 6.93; under “TGATAATATTATATATGTACATATATGTATATTTTT [XGTACX_site7193]”, 7.
For “ATATGGGTGAACATATGTACATATATATATTGATAA [XGTACX_site8438]”, the “gcPBM binding intensity (ln)” value stood at 7.1.
Take “TTGGTATATTATAAAAGTACACATAATAAAAAATTT [XGTACX_site7985]”: the “gcPBM binding intensity (ln)” value was 7.02.
Take “ATTTTTCATTCTGGACATGTTACCATTATATATATG [CACACA_negctrl_site61]”: the “gcPBM binding intensity (ln)” value came to 7.4.
Take “ATAACTATAATAATCATACACACCAAAGAGAATATT [CACACA_site6970]”: the “gcPBM binding intensity (ln)” value was 7.05.
Turning to “TAATTTGTTATGTATTGTACAAATAATATATGATAT [XGTACX_site1985]”, the “gcPBM binding intensity (ln)” value was 7.09.
Consider “ATTAAAAAAATATACGCACACAAAATGTAATAACAA [CACACA_site2439]”, for which the “gcPBM binding intensity (ln)” value worked out at 7.06.
“TTTTGTTTAAAAAAAAAAAACAAAAAAAAGCAATTA [CACACA_negctrl_site314]”: the “gcPBM binding intensity (ln)” value amounted to 6.58.
Turning to “TTACATAATTTATGTACACACGCAAATACTTATAAT [CACACA_site4331]”, the “gcPBM binding intensity (ln)” value is 7.17.
Consider “AATTATTAAATATGTACACACGTACATTTTATAAAT [CACACA_site5341]”, for which the “gcPBM binding intensity (ln)” value turned out to be 6.92.
Regarding “AGTACATTATAGAATACACACCTATATATATATATA [CACACA_site4447]”, the “gcPBM binding intensity (ln)” value worked out at 9.16.
“TATTTTGTTCTTTCCACACACAAATACATATATTGT [CACACA_site4071]”: the “gcPBM binding intensity (ln)” value was 7.18.
Take “TAATACATACACACATGTACATACAGAAATAAATAA [XGTACX_site3245]”: the “gcPBM binding intensity (ln)” value stood at 7.28.
On to “AATATAAAAATGTTTACACACACACGGAAATATATT [CACACA_site7226]”, for which the “gcPBM binding intensity (ln)” value stood at 6.98.
Take “TAAAATTAATAAAATATTTTCACTTAATATATATAA [CACACA_negctrl_site1550]”: the “gcPBM binding intensity (ln)” value amounted to 6.9.
Regarding “ATGTTGTACAAACACACACACAAAAAAAAAATAAAA [CACACA_site2406]”, the “gcPBM binding intensity (ln)” value was 7.34.
As to “ATATATATATGTGGATGTACATATATCTCTTATTAT [XGTACX_site1748]”, the “gcPBM binding intensity (ln)” value came to 9.14.
For “TTTTACATAAATTATAAATATATAAAATAAAAAAAA [CACACA_negctrl_site1499]”, the “gcPBM binding intensity (ln)” value came to 6.76.
As for “TTAATATTCCAGCTTTGTACATATATATATTATAAA [XGTACX_site7954]”, the “gcPBM binding intensity (ln)” value came to 7.18.
Consider “TTAATGGAAAAATAGGCACACACACCGATATACATA [CACACA_site8356]”, for which the “gcPBM binding intensity (ln)” value stood at 6.86.
For the sequence “TGGCTTTCCCTGCCGGTGCATTAACATTTTTTACAT [GTGCAC_site9914]”, the “gcPBM binding intensity (ln)” value came to 9.58.
Under “CATATATATATTTTTTGTACATATATTTTTACATAT [XGTACX_site8419]” stands 7.14; under “AAAAAGAAGAAGAAATGTACGTAACTATATATTTAT [XGTACX_site4362]”, 6.93.
To “ATTGTAAGGAAACACACACACATATATATGTATATA [CACACA_site676]” belongs 7.07; to “TATATGTTTAATTTCACACACAAATATGCATTTTAA [CACACA_site7881]”, 7.04.

Source of the values: the supplement of paper PMC11417369.
